According to article PMC9911399, “Two distinct binding modes provide the RNA-binding protein RbFox with extraordinary sequence specificity”:
Substitutions are numbered along the chain they refer to; changes in the protein carry UniProt numbers. Some of the results follow.

T1: RBFOX1 RRM (Homo sapiens, UniProt Q9NWB1 109-208)
T1 sequence: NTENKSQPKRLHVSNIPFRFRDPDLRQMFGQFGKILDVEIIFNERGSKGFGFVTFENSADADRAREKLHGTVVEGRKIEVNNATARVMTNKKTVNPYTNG

B1: GGCUUCU (DNA:RNA)
RNA: GGGAGACCGGAAUUCAGAUUGUCCGGCUUCUUUAAAUCCCGUCGUAGCCACCA
DNA 1: CAATCTGAATTCCGGTCTCCC
DNA 2: TGGTGGCTACGACGGGATT
B2: GGUCAGA (DNA:RNA)
RNA: B1 RNA with C27U, U28C, U29A, C30G, U31A
DNA 1: CAATCTGAATTCCGGTCTCCC
DNA 2: TGGTGGCTACGACGGGATT
B3: AUUGCCU (DNA:RNA)
RNA: B1 RNA with G25A, G26U, C27U, U28G, U29C
DNA 1: CAATCTGAATTCCGGTCTCCC
DNA 2: TGGTGGCTACGACGGGATT
B4: GACCAUG (DNA:RNA)
RNA: B1 RNA with G26A, U28C, U29A, C30U, U31G
DNA 1: CAATCTGAATTCCGGTCTCCC
DNA 2: TGGTGGCTACGACGGGATT
B5: AAGAGGG (DNA:RNA)
RNA: GGGAGACCGGAAUUCAGAUUGUCCAAGAGGGUUAAAUCCCGUCGUAGCCACCA
DNA 1: CAATCTGAATTCCGGTCTCCC
DNA 2: TGGTGGCTACGACGGGATT
B6: GACAGUA (DNA:RNA)
RNA: B5 RNA with A25G, G27C, G30U, G31A
DNA 1: CAATCTGAATTCCGGTCTCCC
DNA 2: TGGTGGCTACGACGGGATT
B7: CACGAAG (DNA:RNA)
RNA: B5 RNA with A25C, G27C, A28G, G29A, G30A
DNA 1: CAATCTGAATTCCGGTCTCCC
DNA 2: TGGTGGCTACGACGGGATT
B8: UUUCUCG (DNA:RNA)
RNA: B1 RNA with G25U, G26U, C27U, U28C, U31G
DNA 1: CAATCTGAATTCCGGTCTCCC
DNA 2: TGGTGGCTACGACGGGATT
B9: CUAAUAU (DNA:RNA)
RNA: B1 RNA with G25C, G26U, C27A, U28A, C30A
DNA 1: CAATCTGAATTCCGGTCTCCC
DNA 2: TGGTGGCTACGACGGGATT
B10: GGAGCGG (DNA:RNA)
RNA: B5 RNA with A25G, A26G, G27A, A28G, G29C
DNA 1: CAATCTGAATTCCGGTCTCCC
DNA 2: TGGTGGCTACGACGGGATT
B11: UUUCAGA (DNA:RNA)
RNA: B5 RNA with A25U, A26U, G27U, A28C, G29A, G31A
DNA 1: CAATCTGAATTCCGGTCTCCC
DNA 2: TGGTGGCTACGACGGGATT
B12: UCAUUAU (DNA:RNA)
RNA: B1 RNA with G25U, G26C, C27A, C30A
DNA 1: CAATCTGAATTCCGGTCTCCC
DNA 2: TGGTGGCTACGACGGGATT
B13: UCAAGAG (DNA:RNA)
RNA: B5 RNA with A25U, A26C, G27A, G30A
DNA 1: CAATCTGAATTCCGGTCTCCC
DNA 2: TGGTGGCTACGACGGGATT
B14: UGGCGGA (DNA:RNA)
RNA: B5 RNA with A25U, A26G, A28C, G31A
DNA 1: CAATCTGAATTCCGGTCTCCC
DNA 2: TGGTGGCTACGACGGGATT
B15: GCAAAUG (DNA:RNA)
RNA: B5 RNA with A25G, A26C, G27A, G29A, G30U
DNA 1: CAATCTGAATTCCGGTCTCCC
DNA 2: TGGTGGCTACGACGGGATT
B16: ACGAAAU (DNA:RNA)
RNA: B5 RNA with A26C, G29A, G30A, G31U
DNA 1: CAATCTGAATTCCGGTCTCCC
DNA 2: TGGTGGCTACGACGGGATT
B17: AUGGUGG (DNA:RNA)
RNA: B5 RNA with A26U, A28G, G29U
DNA 1: CAATCTGAATTCCGGTCTCCC
DNA 2: TGGTGGCTACGACGGGATT
B18: GUCUGCG (DNA:RNA)
RNA: B1 RNA with G26U, U29G, U31G
DNA 1: CAATCTGAATTCCGGTCTCCC
DNA 2: TGGTGGCTACGACGGGATT
B19: AGGCCCA (DNA:RNA)
RNA: B5 RNA with A26G, A28C, G29C, G30C, G31A
DNA 1: CAATCTGAATTCCGGTCTCCC
DNA 2: TGGTGGCTACGACGGGATT
B20: GGCAGGU (DNA:RNA)
RNA: B1 RNA with U28A, U29G, C30G
DNA 1: CAATCTGAATTCCGGTCTCCC
DNA 2: TGGTGGCTACGACGGGATT
B21: UUUUCAC (DNA:RNA)
RNA: B1 RNA with G25U, G26U, C27U, U29C, C30A, U31C
DNA 1: CAATCTGAATTCCGGTCTCCC
DNA 2: TGGTGGCTACGACGGGATT
B22: UGGGCUA (DNA:RNA)
RNA: B5 RNA with A25U, A26G, A28G, G29C, G30U, G31A
DNA 1: CAATCTGAATTCCGGTCTCCC
DNA 2: TGGTGGCTACGACGGGATT
B23: GGGUAGA (DNA:RNA)
RNA: B1 RNA with C27G, U29A, C30G, U31A
DNA 1: CAATCTGAATTCCGGTCTCCC
DNA 2: TGGTGGCTACGACGGGATT
B24: CAGCUGU (DNA:RNA)
RNA: B5 RNA with A25C, A28C, G29U, G31U
DNA 1: CAATCTGAATTCCGGTCTCCC
DNA 2: TGGTGGCTACGACGGGATT
B25: GACAGGG (DNA:RNA)
RNA: B5 RNA with A25G, G27C
DNA 1: CAATCTGAATTCCGGTCTCCC
DNA 2: TGGTGGCTACGACGGGATT
B26: UAUAUUU (DNA:RNA)
RNA: B5 RNA with A25U, G27U, G29U, G30U, G31U
DNA 1: CAATCTGAATTCCGGTCTCCC
DNA 2: TGGTGGCTACGACGGGATT
B27: CUUGACC (DNA:RNA)
RNA: B1 RNA with G25C, G26U, C27U, U28G, U29A, U31C
DNA 1: CAATCTGAATTCCGGTCTCCC
DNA 2: TGGTGGCTACGACGGGATT
B28: CAUCAAA (DNA:RNA)
RNA: B5 RNA with A25C, G27U, A28C, G29A, G30A, G31A
DNA 1: CAATCTGAATTCCGGTCTCCC
DNA 2: TGGTGGCTACGACGGGATT
B29: CCUCGCG (DNA:RNA)
RNA: B5 RNA with A25C, A26C, G27U, A28C, G30C
DNA 1: CAATCTGAATTCCGGTCTCCC
DNA 2: TGGTGGCTACGACGGGATT
B30: UGGUCUC (DNA:RNA)
RNA: B1 RNA with G25U, C27G, U29C, C30U, U31C
DNA 1: CAATCTGAATTCCGGTCTCCC
DNA 2: TGGTGGCTACGACGGGATT
B31: UGACGCA (DNA:RNA)
RNA: B1 RNA with G25U, C27A, U28C, U29G, U31A
DNA 1: CAATCTGAATTCCGGTCTCCC
DNA 2: TGGTGGCTACGACGGGATT

biological target: T1, RBFOX1 RRM; test: EMSA; HiTS-Eq, 1 nM pool, 10 min; buffer printed only for the single-RNA assays: 10 mM Tris pH 7.5, 150 mM NaCl, 3.4 mM EDTA, 0.001% NP-40, 30 C; conditions: tags: His6 N-terminal (pET28a); label: 5' 32P
Summary of the method: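 Purified RbFox RRM, wild type or mutant, was incubated for 10 min in 50 µL with 1 nM of a 5′-radiolabelled RNA pool carrying 7 randomized nucleotides, whose flanks were annealed to DNA oligonucleotides, over a series of increasing protein concentrations. Unbound RNA was resolved on 8% native PAGE, cut out, reverse-transcribed, barcoded by PCR and sequenced on an Illumina HiSeq 2500. Relative association constants were derived from changes in read counts for each RNA species versus the control reaction and normalised to the cognate motif.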

Row | Binder | binding signal
1 | B1 | 0.0207 KA relative to UGCAUGU
2 | B2 | 0.00171 KA relative to UGCAUGU
3 | B3 | 0.0083 KA relative to UGCAUGU
4 | B4 | 0.0127 KA relative to UGCAUGU
5 | B5 | 0.005 KA relative to UGCAUGU
6 | B6 | 0.0098 KA relative to UGCAUGU
7 | B7 | 0.00654 KA relative to UGCAUGU
8 | B8 | 0.0134 KA relative to UGCAUGU
9 | B9 | 0.00179 KA relative to UGCAUGU
10 | B10 | 0.0125 KA relative to UGCAUGU
11 | B11 | 0.0123 KA relative to UGCAUGU
12 | B12 | 0.00269 KA relative to UGCAUGU
13 | B13 | 0.00877 KA relative to UGCAUGU
14 | B14 | 0.0166 KA relative to UGCAUGU
15 | B15 | 0.00715 KA relative to UGCAUGU
16 | B16 | 0.0032 KA relative to UGCAUGU

Row | Binder | binding signal
17 | B17 | 0.0151 KA relative to UGCAUGU
18 | B18 | 0.0225 KA relative to UGCAUGU
19 | B19 | 0.00176 KA relative to UGCAUGU
20 | B20 | 0.007 KA relative to UGCAUGU
21 | B21 | 0.00776 KA relative to UGCAUGU
22 | B22 | 0.0261 KA relative to UGCAUGU
23 | B23 | 0.0155 KA relative to UGCAUGU
24 | B24 | 0.00977 KA relative to UGCAUGU
25 | B25 | 0.0115 KA relative to UGCAUGU
26 | B26 | 0.00235 KA relative to UGCAUGU
27 | B27 | 0.0059 KA relative to UGCAUGU
28 | B28 | 0.00054 KA relative to UGCAUGU
29 | B29 | 0.00752 KA relative to UGCAUGU
30 | B30 | 0.0219 KA relative to UGCAUGU
31 | B31 | 0.0206 KA relative to UGCAUGU
